According to article PMC4751553:
Results are given in words; binding and its absence hold for the method and conditions named. In cells and extracts the contact can be indirect. Some entries that bind do so weakly or less than the wild type. Tags and fused reporters may be left off the sequences shown.

T1: Rvs161p tagged with an internal FLAG tag inserted after amino acid 85 (wild type) (S. cerevisiae) (UniProt P25343)
T1 sequence: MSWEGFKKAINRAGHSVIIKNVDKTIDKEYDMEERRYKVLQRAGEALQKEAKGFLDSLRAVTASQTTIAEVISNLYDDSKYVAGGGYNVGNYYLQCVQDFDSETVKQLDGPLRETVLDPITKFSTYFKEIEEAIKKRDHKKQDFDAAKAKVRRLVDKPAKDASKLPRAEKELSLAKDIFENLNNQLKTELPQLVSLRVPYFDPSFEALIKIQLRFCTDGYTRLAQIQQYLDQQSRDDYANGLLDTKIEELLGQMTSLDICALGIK


Target: T1, Rvs161p tagged with an internal FLAG tag inserted after amino acid 85 (wild type) (S. cerevisiae)
Experiment: co-IP; lysates of pheromone-induced S. cerevisiae (galactose medium, 10 μg/ml pheromone, 2 hr); Rvs161p-FLAG held on anti-FLAG M2 affinity gel, 1 hr at 4°, 50 mM Tris pH 7.4, 150 mM NaCl, 0.5% Triton X-100; bound Fus2p-GFP detected by western blot with anti-GFP

| Binder | binding |
| --- | --- |
| Fus2p^105–677 (GFP-tagged N-terminal truncation) (domain or fragment, UniProt Q05670 105-677) NSPHEGCKFYKIVQEFYLSEVEYYNNLLTANNVYRKALNSDPRFKNKLVKLDSSDELLLFGNIDTIASISKILVTAIKDLLLAKQRGKMLDANEWQKIFTKNEVQQQLYSTFDISEAFEQHLLRIKSTYTSYFVSHQKQMELFTTLRMNKNHFFNKWYEYCLKESGCIKLEDILKSPMKRLTQWIDTLETLESCYEDILSPELGLKLSPTRRKYSLFSNKLETEVSEYKSNSMYNFSLTPSEIIQSYDEDQFTHLLKPPDKQNKNICNASRQESNLDNSRVPSLLSGSSSYYSDVSGLEIVTNTSTASAEMINLKMDEETEFFTLADHISKFKKVMKGLLELKKNLLKNDLSGIIDISLRRINAWKKVIECERPSGAFFAHDNLISTMCSSYIDKLHEQKNQVTILKLTELETDVMNPLERIIAHCTTVKSKLKDLQALKKDYMLFLQEKKANVRDIKRDLLGMHFQNLQNQMKRELPVFITLIHDTIECILLNYIKVFLKYLEIIAGGKKYLQKDLENMSLNDSIATGQIKNLDILQCYSKSRYMTKRMVRKDWPFPGDPSGSRVVRKLFEL | binds |
| Fus2p-GFP with an internal deletion of residues 538–579 (protein, UniProt Q05670) MFKTSYNLYDLNYPKNDSLTPIRDYKNDYFHKNDDKLPEIVRKPTRKLSKHENKLNDKKFTNKRPASLDLHSIVESLSNKKIYSPINTEIFQNVVRLNLSPQIPNSPHEGCKFYKIVQEFYLSEVEYYNNLLTANNVYRKALNSDPRFKNKLVKLDSSDELLLFGNIDTIASISKILVTAIKDLLLAKQRGKMLDANEWQKIFTKNEVQQQLYSTFDISEAFEQHLLRIKSTYTSYFVSHQKQMELFTTLRMNKNHFFNKWYEYCLKESGCIKLEDILKSPMKRLTQWIDTLETLESCYEDILSPELGLKLSPTRRKYSLFSNKLETEVSEYKSNSMYNFSLTPSEIIQSYDEDQFTHLLKPPDKQNKNICNASRQESNLDNSRVPSLLSGSSSYYSDVSGLEIVTNTSTASAEMINLKMDEETEFFTLADHISKFKKVMKGLLELKKNLLKNDLSGIIDISLRRINAWKKVIECERPSGAFFAHDNLISTMCSSYIDKLHEQKNQVTILKLTELETDVMNPLERIIAHCTTVKSKLELPVFITLIHDTIECILLNYIKVFLKYLEIIAGGKKYLQKDLENMSLNDSIATGQIKNLDILQCYSKSRYMTKRMVRKDWPFPGDPSGSRVVRKLFEL | no binding |
| Fus2p-GFP with a deletion of residues 570–582 (protein, UniProt Q05670) MFKTSYNLYDLNYPKNDSLTPIRDYKNDYFHKNDDKLPEIVRKPTRKLSKHENKLNDKKFTNKRPASLDLHSIVESLSNKKIYSPINTEIFQNVVRLNLSPQIPNSPHEGCKFYKIVQEFYLSEVEYYNNLLTANNVYRKALNSDPRFKNKLVKLDSSDELLLFGNIDTIASISKILVTAIKDLLLAKQRGKMLDANEWQKIFTKNEVQQQLYSTFDISEAFEQHLLRIKSTYTSYFVSHQKQMELFTTLRMNKNHFFNKWYEYCLKESGCIKLEDILKSPMKRLTQWIDTLETLESCYEDILSPELGLKLSPTRRKYSLFSNKLETEVSEYKSNSMYNFSLTPSEIIQSYDEDQFTHLLKPPDKQNKNICNASRQESNLDNSRVPSLLSGSSSYYSDVSGLEIVTNTSTASAEMINLKMDEETEFFTLADHISKFKKVMKGLLELKKNLLKNDLSGIIDISLRRINAWKKVIECERPSGAFFAHDNLISTMCSSYIDKLHEQKNQVTILKLTELETDVMNPLERIIAHCTTVKSKLKDLQALKKDYMLFLQEKKANVRDIKRDLLGMHVFITLIHDTIECILLNYIKVFLKYLEIIAGGKKYLQKDLENMSLNDSIATGQIKNLDILQCYSKSRYMTKRMVRKDWPFPGDPSGSRVVRKLFEL | no binding |
